Results published in patent US11000038B2, “Pyridone compounds and agricultural and horticultural fungicides containing the same as active ingredients” (priority 2017, dated 2021).

Assays:
[1] = system: tomato late blight fungi (Phytophthora infestans); type: in vivo; settings: tomato late blight
[2] = system: cucumber anthracnose fungi (Colletotrichum orbiculare); assay: Test Example H: cucumber anthracnose, spray treatment of cucumber plants; settings: cucumber anthracnose, 6 to 10 days after inoculation
[3] = system: rice blast fungi (Magnaporthe grisea); type: in vivo; settings: rice blast
[4] = spray treatment of tomato plants

Row | Compound | Test F control value [1, 4] | Test H control value ([2]; 250 ppm spray (2.5 ml/pot)) | Test A control value ([3]; spray treatment of rice plants) | Test F control value ([1]; spray treatment) | Test H control value ([2]; 250 ppm spray) | Test A control value ([3]; spray treatment)
1 | Cc1ccccc1-n1cc(C)c(=O)c(CC(F)(F)F)c1-c1c(F)cc(F)cc1F [Compound 355] | L (L shows the control value of 50% or less) | L (L shows the control value of 50% or less) | H (H shows the control value of more than 50%) |  |  | 
2 | COc1cc(F)c(-c2c(CC(F)(F)F)c(=O)c(Br)cn2-c2ccccc2C)c(F)c1 [Compound 356] | L (L shows the control value of 50% or less) | H (H shows the control value of more than 50%) | H (H shows the control value of more than 50%) |  |  | 
3 | Cc1ccccc1-n1cc(Br)c(=O)c(C)c1-c1ccccc1 [Compound 357] | L (L shows the control value of 50% or less) | L (L shows the control value of 50% or less) | L (L shows the control value of 50% or less) |  |  | 
4 | Cc1cccc(F)c1-n1cc(Br)c(=O)c(Cl)c1-c1ccc(F)cc1 [Compound 358] | L (L shows the control value of 50% or less) | L (L shows the control value of 50% or less) | L (L shows the control value of 50% or less) |  |  | 
5 | Cc1cccc(F)c1-n1cc(Br)c(=O)c(Br)c1-c1ccc(F)cc1 [Compound 359] | L (L shows the control value of 50% or less) | H (H shows the control value of more than 50%) | L (L shows the control value of 50% or less) |  |  | 
6 | Cc1cn(-c2ccccc2)c(-c2c(F)cccc2F)c(C)c1=O [Compound 360] | L (L shows the control value of 50% or less) | H (H shows the control value of more than 50%) | H (H shows the control value of more than 50%) |  |  | 
7 | O=c1c(Br)cn(-c2ccccc2F)c(-c2c(F)cccc2F)c1Cl [Compound 361] | L (L shows the control value of 50% or less) | H (H shows the control value of more than 50%) | L (L shows the control value of 50% or less) |  |  | 
8 | O=c1c(Br)cn(-c2ccccc2)c(-c2c(F)cccc2F)c1Cl [Compound 362] | L (L shows the control value of 50% or less) | H (H shows the control value of more than 50%) | H (H shows the control value of more than 50%) |  |  | 
9 | O=c1c(Br)cn(-c2ccccc2)c(-c2c(F)cccc2F)c1Br [Compound 363] | L (L shows the control value of 50% or less) | L (L shows the control value of 50% or less) | L (L shows the control value of 50% or less) |  |  | 
10 | Cc1c(-n2cc(Br)c(=O)c(Cl)c2-c2c(F)cc(F)cc2F)cccc1C(F)(F)F [Compound 364] | L (L shows the control value of 50% or less) | H (H shows the control value of more than 50%) | H (H shows the control value of more than 50%) |  |  | 
11 | Cc1c(-n2cc(Br)c(=O)c(Br)c2-c2c(F)cc(F)cc2F)cccc1C(F)(F)F [Compound 365] | L (L shows the control value of 50% or less) | L (L shows the control value of 50% or less) | L (L shows the control value of 50% or less) |  |  | 
12 | COc1cccc(-n2cc(Br)c(=O)c(Cl)c2-c2c(F)cc(F)cc2F)c1C [Compound 366] | H (H shows the control value of more than 50%) | H (H shows the control value of more than 50%) | H (H shows the control value of more than 50%) |  |  | 
13 | COc1cccc(-n2cc(Br)c(=O)c(Br)c2-c2c(F)cc(F)cc2F)c1C [Compound 367] | H (H shows the control value of more than 50%) | H (H shows the control value of more than 50%) | H (H shows the control value of more than 50%) |  |  | 
14 | Cc1cccc(F)c1-n1cc(Cl)c(=O)c(Br)c1-c1ccc(F)cc1 [Compound 368] | L (L shows the control value of 50% or less) | H (H shows the control value of more than 50%) | H (H shows the control value of more than 50%) |  |  | 
15 | Cc1cccc(F)c1-n1cc(Cl)c(=O)c(Cl)c1-c1ccc(F)cc1 [Compound 369] | L (L shows the control value of 50% or less) | H (H shows the control value of more than 50%) | L (L shows the control value of 50% or less) |  |  | 
16 | Cc1cn(-c2ccccc2C(F)(F)F)c(-c2c(F)cccc2F)c(C)c1=O [Compound 370] | L (L shows the control value of 50% or less) | H (H shows the control value of more than 50%) | L (L shows the control value of 50% or less) |  |  | 
17 | O=c1c(Br)cn(-c2ccccc2C(F)(F)F)c(-c2c(F)cccc2F)c1Cl [Compound 371] | L (L shows the control value of 50% or less) | H (H shows the control value of more than 50%) | H (H shows the control value of more than 50%) |  |  | 
18 | O=c1c(Br)cn(-c2ccccc2C(F)(F)F)c(-c2c(F)cccc2F)c1Br [Compound 372] | L (L shows the control value of 50% or less) | H (H shows the control value of more than 50%) | H (H shows the control value of more than 50%) |  |  | 
19 | Cc1ccc(N(C)C)cc1-n1cc(Br)c(=O)c(Cl)c1-c1c(F)cc(F)cc1F [Compound 373] |  |  |  | L (L shows the control value of 50% or less) | H (H shows the control value of more than 50%) | H (H shows the control value of more than 50%)
20 | CNc1ccc(C)c(-n2cc(Br)c(=O)c(Cl)c2-c2c(F)cc(F)cc2F)c1 [Compound 374] |  |  |  | L (L shows the control value of 50% or less) | H (H shows the control value of more than 50%) | H (H shows the control value of more than 50%)
21 | CCc1c(-c2c(F)cc(F)cc2F)n(-c2ccccc2C)cc(Cl)c1=O [Compound 375] |  |  |  | L (L shows the control value of 50% or less) | H (H shows the control value of more than 50%) | H (H shows the control value of more than 50%)
22 | CCCc1c(-c2c(F)cc(F)cc2F)n(-c2ccccc2C)cc(Br)c1=O [Compound 376] |  |  |  | L (L shows the control value of 50% or less) | L (L shows the control value of 50% or less) | L (L shows the control value of 50% or less)
23 | Cc1ccccc1-n1cc(Br)c(=O)c(Cl)c1-c1ccccc1F [Compound 377] |  |  |  | L (L shows the control value of 50% or less) | H (H shows the control value of more than 50%) | L (L shows the control value of 50% or less)
24 | Cc1ccccc1-n1cc(Br)c(=O)c(Cl)c1-c1ccccc1 [Compound 378] |  |  |  | L (L shows the control value of 50% or less) | H (H shows the control value of more than 50%) | L (L shows the control value of 50% or less)

Read-outs that look alike come from different tables or passages of the source.
